# In PubChem BioAssay AID1745853 (National Center for Advancing Translational Sciences (NCATS), 2022):
# “And” between values parts separate entries of the source, which are not always exact repeats. Equal entries are not always repeated. The list shows a part of the results. Shown are side measurements of this screen, not its main read-out; they come without a call.
# Legend:
# Assay in all cases: Primary Screen for Target Class Profiling of Small Molecule Inhibitors of Methyltransferases
# [1] = target: Glycine N-methyltransferase (Homo sapiens) (UniProt Q14749); conditions: purified enzyme, MTase-Glo SAH luminescence; measured here: GNMT inhibition; at 40 µM; stronger effect = lower value
# Outline: (§1)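 Each enzyme was assayed with SAM and its substrate. SAH formation detected by MTase-Glo luminescence; single-point 40 uM screen[…].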
# [2] = target: Guanidinoacetate N-methyltransferase (Homo sapiens) (UniProt Q14353); conditions: purified enzyme, MTase-Glo SAH luminescence; measured here: GAMT inhibition; at 40 µM; stronger effect = lower value
# Outline: as §1
# [3] = target: Histamine N-methyltransferase (Homo sapiens) (UniProt P50135); conditions: purified enzyme, MTase-Glo SAH luminescence; measured here: HNMT inhibition; at 40 µM; stronger effect = lower value
# Outline: as §1
# [4] = target: Nicotinamide N-methyltransferase (Homo sapiens) (UniProt P40261); conditions: purified enzyme, MTase-Glo SAH luminescence; measured here: NNMT inhibition; at 40 µM; stronger effect = lower value
# Outline: as §1
# [5] = target: Phenylethanolamine N-methyltransferase (Homo sapiens) (UniProt P11086); conditions: purified enzyme, MTase-Glo SAH luminescence; measured here: PNMT inhibition; at 40 µM; stronger effect = lower value
# Outline: as §1
# On the % scale 0 is the no-effect control and ±100 the full control effect.
SMILES,"activity change, negative = inhibition [1]","activity change, negative = inhibition [2]","activity change, negative = inhibition [3]","activity change, negative = inhibition [4]","activity change, negative = inhibition [5]"
CCCNC(=O)N1Cc2ccccc2-n2cccc2C1c1ccc(OC)c(OC)c1 (stereo unspecified),4.22%,0%,-4.64%,-1.58%,3.17%
O=C([C@H]1CN2CCC1C[C@@H]2Cn1cc(CCO)nn1)N1CCOCC1 (stereo partly specified),0.12%,1.4%,0.845%,0.907%,5.96%
O=C1NC(=O)c2c1c1c3ccccc3n3c1c1c2c2ccccc2n1C1CCC3O1,–,-33.1%,–,-39.3%,-12.3%
CCCCCn1cc(C(=O)c2cccc3ccccc23)c2ccccc21,5.29%,-16.4%,10.8%,-22.4%,-6.7%
CCOc1ccccc1NC(=O)N1Cc2ccccc2-n2cccc2C1c1ccc(Cl)cc1 (stereo unspecified),-2.61%,0.924%,1.58%,-3.01%,0.694%
COC(=O)c1cccc(NC(=O)N2Cc3ccccc3-n3cccc3C2c2ccc(Cl)cc2)c1 (stereo unspecified),-2.56%,3.86%,-1.92%,-2.8%,0.297%
CCOc1ccc(NC(=O)N2Cc3ccccc3-n3cccc3C2c2cccc(C)c2)cc1 (stereo unspecified),8.34%,0.244%,7.35%,5.82%,4.85%
CC(C)N(CCC(C(N)=O)(c1ccccc1)c1ccccn1)C(C)C (stereo unspecified),2.79% and -0.232% and 4.29%,7.99% and -0.093% and -6.72%,-19.9% and 0.134% and -18.8%,-5.53% and -10.6% and -10.1%,-3.86% and -2.45% and -4.2%
C/C=C(/C)C(=O)O[C@H]1[C@@H]2[C@H](C)C(=O)O[C@@H]2C[C@@H](C)[C@@H]2C=CC(=O)[C@]21C,-0.249%,4.86%,7.3%,-7.59%,4.94%
CC(=O)N1[C@H]2CC[C@@H]1c1cnc(-c3ccc(F)cc3)nc1C2,-7.17%,-14.4%,-5.82%,-19.8%,-10.6%
O=[N+]([O-])/C=C/c1ccc2c(c1)OCO2,-15%,13%,2.34%,-5.86%,9.16%
COc1ccccc1NC(=O)N1Cc2ccccc2-n2cccc2C1C (stereo unspecified),-0.696%,0%,9.59%,1.26%,5.75%
Cc1ccccc1-c1ccc2n(c1=O)C[C@H]1C[C@@H]2CN(C(=O)NC2CCCCC2)C1,-5.42%,-14.4%,-5.59%,-14.8%,-12.1%
CSc1ccc(C2c3cccn3-c3ccccc3CN2C(=O)NCc2ccccc2)cc1 (stereo unspecified),0.96%,0%,1.12%,1.71%,5.23%
CC1=CC2/C=C(\C)CCCC(O)/C=C/C(=O)OC23C(=O)NC(CC(C)C)C3C1C (stereo unspecified),4.38%,3.25%,12.1%,-5.85%,3.76%
CSc1ccc(C2c3cccn3-c3ccccc3CN2C(=O)Nc2ccc(C)cc2C)cc1 (stereo unspecified),-0.935%,0%,5.7%,-2.3%,5.59%
CN1CCN(C(=O)Cc2c[nH]c3ncc(-c4cccc(O)c4)cc23)CC1,-11.2%,-0.816%,-13.5%,-9.53%,-37.3%
CC(Cc1ccc(OCC(=O)O)cc1)NCC(O)c1cccc(Cl)c1 (stereo unspecified),4.51%,13.1%,5.05%,-0.72%,12.3%
OC1CCCCC1N1CCC(c2ccccc2)CC1 (stereo unspecified),3.64%,14.6%,-3.56%,-0.738%,7.73%
CCc1ccc(C2c3cccn3-c3ccccc3CN2C(=O)Nc2ccc(OC)cc2OC)cc1 (stereo unspecified),4.11%,1.23%,-2.85%,-5.29%,2.63%

SMILES,"activity change, negative = inhibition [1]","activity change, negative = inhibition [2]","activity change, negative = inhibition [3]","activity change, negative = inhibition [4]","activity change, negative = inhibition [5]"
CC(C)=CCOc1c2occc2cc2ccc(=O)oc12,-27.3%,9.08%,7.81%,-13.8%,-1.78%
C=CCN1C[C@H](C)N([C@H](c2ccc(C(=O)N(CC)CC)cc2)c2cccc(OC)c2)C[C@H]1C,-0.59%,-5.92%,8.05%,-14.3%,-2.83%
Cc1ccc(NC(=O)N2Cc3ccccc3-n3cccc3C2c2cccs2)cc1C (stereo unspecified),9.41%,0%,4.44%,4.33%,7.42%
CC(C)CCN1CCC2CC(=O)NCCC2C1 (stereo unspecified),-2.48%,-6.77%,-0.196%,-8.81%,-2.83%
O=C(Nc1ccccc1)Nc1ccc2n(c1=O)C[C@H]1C[C@@H]2CN(C(=O)c2ccccc2)C1,-9.21%,-4.95%,-4.37%,-6.12%,-4.22%
COC[C@H]1C[C@@H](NC2CCOCC2)[C@H](O)[C@@H]1O,-2.65%,-5.63%,-1.04%,-1.88%,2.21%
CC1CCCCCC(=O)c2c(O)cc(O)cc2CC(=O)O1 (stereo unspecified),2.27%,-1.27%,4.8%,-12.5%,1.26%
CC1(C)C(=O)N(c2ccc(C#N)c(C(F)(F)F)c2)C(=S)N1c1ccc(C(N)=O)c(F)c1,5.91%,2.29%,5.66%,-24.5%,0.343%
Cc1ccccc1C1c2cccn2-c2ccccc2CN1C(=O)Nc1cccc(Cl)c1C (stereo unspecified),14.2%,0%,8.12%,2.69%,10.3%
Cc1ncc2c(n1)C[C@@H]1CC[C@H]2N1S(=O)(=O)Cc1ccccc1,-0.79%,3.08%,0.86%,-3.91%,-0.724%
COc1ccc(OC)c(NC(=O)N2Cc3ccccc3-n3cccc3C2c2ccccc2Cl)c1 (stereo unspecified),8.84%,0%,1.36%,5.28%,5.41%
Cc1cc(C)cc(NC(=O)N2Cc3ccccc3-n3cccc3C2c2ccccc2C)c1 (stereo unspecified),1.44%,1.32%,-4.6%,-9.83%,-5.45%
C=CCN1CC[C@]2(C)c3cc(O)ccc3CC1[C@@H]2C,–,1.22%,–,-8.37%,2.41%
O=C(N[C@H]1CN2CCC1CC2)c1ccc(Cl)cc1,7.15% and -3.35%,8.01% and 4.59%,5.26% and 0.151%,-4.79% and -4.21%,5.64% and 5.32%
O=[N+]([O-])c1ccc2nc(N3CCNCC3)ccc2c1,-9.88%,10.8%,-10.9%,-2.35%,-4.57%
Cc1c(Cl)cccc1NC(=O)N1Cc2ccccc2-n2cccc2C1c1cccs1 (stereo unspecified),5.63%,4.88%,-1.15%,-10.3%,-0.997%
C[C@@H]1C(=O)O[C@H]2[C@H](O)[C@@]34[C@@H]5OC(=O)[C@@]3(O[C@@H]3OC(=O)[C@@H](O)[C@@]34[C@H](C(C)(C)C)[C@H]5O)[C@@]12O,3.25%,2.33%,10.9%,-11.9%,7.13%
Cc1ccccc1C1=CCN(C)CC1,-6.35%,-10.3%,-20.6%,-14.2%,-48.9%
C[C@@H]1C[C@@H](O)[C@]2(O)O[C@@H]3C[C@@]4(C=O)C(CC[C@@H]5C4CC[C@]4(C)[C@@](O)(C6=CC(=O)OC6)CC[C@]54O)C[C@H]3OC2O1 (stereo partly specified),-0.642%,3.37%,8.29%,-6.51%,0.132%
N#Cc1ccc(N2CCN(C(=O)COc3ccc4[nH]cc(CCN)c4c3)CC2)cc1,-45.3%,-7.32%,-97.9%,-26.1%,-4.25%
